# Measurements as given in the supplement of paper PMC8728848.
# This is one part of the list.
# Columns and labels:
# Experiment in all cases: glycan array binding signal (z-score within array); higher = stronger binding
# Settings in all cases: glycan notation: IUPAC condensed, linker removed
# [1] = biological target: GlcNAc(b1-3)Gal(b1-4)GlcNAc(b1-6)[GlcNAc(b1-3)]Gal(b1-4)GlcNAc
# How it was run: (§1)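 Arrays were curated from the Consortium for Functional Glycomics database, 3228 in total, and kept only where the protein sequence was available. Binding is expressed as a within-array Z-score. This score was averaged across arrays of the same protein sequence at different concentrations or buffers and across linkers, and negative values can be read as non-binding.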
# GlcNAc(b1-3)GalNAc = biological target: GlcNAc(b1-3)GalNAc
# How it was run: as §1
# GlcNAc(b1-3)Man = biological target: GlcNAc(b1-3)Man
# How it was run: as §1
# [2] = biological target: GlcNAc(b1-3)[GlcNAc(b1-4)][GlcNAc(b1-6)]GlcNAc
# How it was run: as §1
# [3] = biological target: GlcNAc(b1-3)[GlcNAc(b1-6)]Gal(b1-4)GlcNAc
# How it was run: as §1
# [4] = biological target: GlcNAc(b1-3)[GlcNAc(b1-6)]GalNAc
# How it was run: as §1
# [5] = biological target: GlcNAc(b1-3)[GlcNAc(b1-6)]GlcNAc(b1-4)GlcNAc
# How it was run: as §1
# [6] = biological target: GlcNAc(b1-4)Gal(b1-4)GlcNAc
# How it was run: as §1
# GlcNAc(b1-4)GlcNAc = biological target: GlcNAc(b1-4)GlcNAc
# How it was run: as §1
# [7] = biological target: GlcNAc(b1-4)GlcNAc(b1-4)GlcNAc
# How it was run: as §1
# [8] = biological target: GlcNAc(b1-4)GlcNAc(b1-4)GlcNAc(b1-4)GlcNAc(b1-4)GlcNAc
# How it was run: as §1
# [9] = biological target: GlcNAc(b1-4)GlcNAc(b1-4)GlcNAc(b1-4)GlcNAc(b1-4)GlcNAc(b1-4)GlcNAc
# How it was run: as §1
# [10] = biological target: GlcNAc(b1-4)[GlcNAc(b1-6)]GalNAc
# How it was run: as §1
# [11] = biological target: GlcNAc(b1-6)Gal(b1-4)GlcNAc
# How it was run: as §1
# GlcNAc(b1-6)GalNAc = biological target: GlcNAc(b1-6)GalNAc
# How it was run: as §1
# [12] = biological target: GlcNAc6S(b1-3)Gal(b1-4)GlcNAc
# How it was run: as §1
# Kdn(a2-3)Gal(b1-3)GalNAc = biological target: Kdn(a2-3)Gal(b1-3)GalNAc
# How it was run: as §1
# Kdn(a2-3)Gal(b1-3)GlcNAc = biological target: Kdn(a2-3)Gal(b1-3)GlcNAc
# How it was run: as §1
# Kdn(a2-3)Gal(b1-4)Glc = biological target: Kdn(a2-3)Gal(b1-4)Glc
# How it was run: as §1
# Kdn(a2-3)Gal(b1-4)GlcNAc = biological target: Kdn(a2-3)Gal(b1-4)GlcNAc
# How it was run: as §1
# [13] = biological target: Kdn(a2-3)Gal(b1-4)[Fuc(a1-3)]GlcNAc
# How it was run: as §1
# Kdn(a2-6)Gal(b1-4)GlcNAc = biological target: Kdn(a2-6)Gal(b1-4)GlcNAc
# How it was run: as §1
# [14] = biological target: Man(a1-2)Man(a1-2)Man(a1-3)Man
# How it was run: as §1
# [15] = biological target: Man(a1-2)Man(a1-2)Man(a1-6)[Man(a1-3)]Man
# How it was run: as §1
# Man(a1-2)Man(a1-3)Man = biological target: Man(a1-2)Man(a1-3)Man
# How it was run: as §1
# [16] = biological target: Man(a1-2)Man(a1-3)[Man(a1-2)Man(a1-6)]Man
# How it was run: as §1
# [17] = biological target: Man(a1-2)Man(a1-3)[Man(a1-2)Man(a1-6)]Man(a1-6)[Man(a1-2)Man(a1-2)Man(a1-3)]Man
# How it was run: as §1
# [18] = biological target: Man(a1-2)Man(a1-3)[Man(a1-2)Man(a1-6)]Man(a1-6)[Man(a1-2)Man(a1-2)Man(a1-3)]Man(b1-4)GlcNAc(b1-4)GlcNAc
# How it was run: as §1
# [19] = biological target: Man(a1-2)Man(a1-3)[Man(a1-6)]Man(a1-6)[Man(a1-2)Man(a1-3)]Man(b1-4)GlcNAc(b1-4)GlcNAc
# How it was run: as §1
# [20] = biological target: Man(a1-2)Man(a1-6)[Man(a1-3)]Man(a1-6)[Man(a1-2)Man(a1-2)Man(a1-3)]Man
# How it was run: as §1
# [21] = biological target: Man(a1-2)Man(a1-6)[Man(a1-3)]Man(a1-6)[Man(a1-2)Man(a1-2)Man(a1-3)]Man(b1-4)GlcNAc(b1-4)GlcNAc
# How it was run: as §1
# Man(a1-3)[Man(a1-6)]Man = biological target: Man(a1-3)[Man(a1-6)]Man
# How it was run: as §1
# [22] = biological target: Man(a1-3)[Man(a1-6)]Man(a1-6)[Man(a1-2)Man(a1-3)]Man(b1-4)GlcNAc(b1-4)GlcNAc
# How it was run: as §1
# [23] = biological target: Man(a1-3)[Man(a1-6)]Man(a1-6)[Man(a1-3)]Man
# How it was run: as §1
# [24] = biological target: Man(a1-3)[Man(a1-6)]Man(a1-6)[Man(a1-3)]Man(b1-4)GlcNAc(b1-4)GlcNAc
# How it was run: as §1
# [25] = biological target: Man(a1-3)[Man(a1-6)]Man(b1-4)GlcNAc(b1-4)GlcNAc
# How it was run: as §1
# [26] = biological target: Man(a1-3)[Man(a1-6)]Man(b1-4)GlcNAc(b1-4)[Fuc(a1-6)]GlcNAc
# How it was run: as §1
# Man(a1-6)Man = biological target: Man(a1-6)Man
# How it was run: as §1
# Man(b1-4)GlcNAc = biological target: Man(b1-4)GlcNAc
# How it was run: as §1
# MurNAc(b1-4)GlcNAc = biological target: MurNAc(b1-4)GlcNAc
# How it was run: as §1
# Neu5Ac(a2-3)Gal = biological target: Neu5Ac(a2-3)Gal
# How it was run: as §1
# [27] = biological target: Neu5Ac(a2-3)Gal(b1-3)GalNAc
# How it was run: as §1
# [28] = biological target: Neu5Ac(a2-3)Gal(b1-3)GalNAc(b1-3)Gal(a1-4)Gal(b1-4)Glc
# How it was run: as §1
# [29] = biological target: Neu5Ac(a2-3)Gal(b1-3)GalNAc(b1-3)Gal(b1-4)GlcNAc
# How it was run: as §1
# [30] = biological target: Neu5Ac(a2-3)Gal(b1-3)GalNAc(b1-4)Gal(b1-4)Glc
# How it was run: as §1
binder,measurement,setting,value
WGA (Triticum vulgare) (protein) QRCGEQGSNMECPNNLCCSQYGYCGMGGDYCGKGCQNGACWTSKRCGSQAGGATCPNNHCCSQYGHCGFGAEYCGAGCQGGPCRADIKCGSQSGGKLCPNNLCCSQWGFCGLGSEFCGGGCQSGACSTDKPCGKDAGGRVCTNNYCCSKWGSCGIGPGYCGAGCQSGGCDAVFAGAITANSTLLAE,glycan array binding signal (z-score),[1],2.26
same,glycan array binding signal (z-score),GlcNAc(b1-3)GalNAc,-0.343
same,glycan array binding signal (z-score),GlcNAc(b1-3)Man,-0.312
same,glycan array binding signal (z-score),[2],-0.342
same,glycan array binding signal (z-score),[3],1.64
same,glycan array binding signal (z-score),[4],0.053
same,glycan array binding signal (z-score),[5],0.452
same,glycan array binding signal (z-score),[6],-0.14
same,glycan array binding signal (z-score),GlcNAc(b1-4)GlcNAc,2.46
same,glycan array binding signal (z-score),[7],3.8
same,glycan array binding signal (z-score),[8],5.62
same,glycan array binding signal (z-score),[9],5.15
same,glycan array binding signal (z-score),[10],1.14
same,glycan array binding signal (z-score),[11],2.12
same,glycan array binding signal (z-score),GlcNAc(b1-6)GalNAc,0.719
same,glycan array binding signal (z-score),[12],0.189
same,glycan array binding signal (z-score),Kdn(a2-3)Gal(b1-3)GalNAc,-0.314
same,glycan array binding signal (z-score),Kdn(a2-3)Gal(b1-3)GlcNAc,-0.378
same,glycan array binding signal (z-score),Kdn(a2-3)Gal(b1-4)Glc,-0.326
same,glycan array binding signal (z-score),Kdn(a2-3)Gal(b1-4)GlcNAc,-0.292
same,glycan array binding signal (z-score),[13],-0.312
same,glycan array binding signal (z-score),Kdn(a2-6)Gal(b1-4)GlcNAc,-0.324
same,glycan array binding signal (z-score),[14],-0.378
same,glycan array binding signal (z-score),[15],-0.343
same,glycan array binding signal (z-score),Man(a1-2)Man(a1-3)Man,-0.347
same,glycan array binding signal (z-score),[16],-0.372
same,glycan array binding signal (z-score),[17],-0.337
same,glycan array binding signal (z-score),[18],-0.435
same,glycan array binding signal (z-score),[19],-0.475
same,glycan array binding signal (z-score),[20],-0.334
same,glycan array binding signal (z-score),[21],-0.434
same,glycan array binding signal (z-score),Man(a1-3)[Man(a1-6)]Man,-0.371
same,glycan array binding signal (z-score),[22],-0.207
same,glycan array binding signal (z-score),[23],-0.305
same,glycan array binding signal (z-score),[24],-0.472
same,glycan array binding signal (z-score),[25],-0.188
same,glycan array binding signal (z-score),[26],-0.358
same,glycan array binding signal (z-score),Man(a1-6)Man,-0.308
same,glycan array binding signal (z-score),Man(b1-4)GlcNAc,-0.365
same,glycan array binding signal (z-score),MurNAc(b1-4)GlcNAc,1.9
same,glycan array binding signal (z-score),Neu5Ac(a2-3)Gal,-0.347
same,glycan array binding signal (z-score),[27],-0.304
same,glycan array binding signal (z-score),[28],-0.306
same,glycan array binding signal (z-score),[29],1.67
same,glycan array binding signal (z-score),[30],-0.391
